# Reference: patent US10299477B2 (priority 2015, dated 2019)
# What was measured:
# Format in all cases: in vivo
# Botrytis cinerea = experiment: Test Example B: Gray mold on tomato
# Source text: [Test Example B] Gray Mold on Tomato
# Seeds of a test plant (tomato variety: Oogata Fukuju) were planted followed by cultivating until three to five first leaves (true leaves) appeared.
# Alternaia brassicicola = experiment: Test Example C: Alternaria sooty spot on cabbage; details: for Test C (control value class) / Test C control value: Alternaria sooty spot on cabbage
# Source text: [Test Example C] Alternaria Sooty Spot on Cabbage
# Seeds of a test plant (cabbage variety: Shikidori) were planted followed by cultivating until the cotyledons extended.
# [1] = system: Blumeria graminis f sp. hordei; experiment: Test Example D: Powdery mildew on barley
# Source text: [Test Example D] Powdery Mildew on Barley
# After the sprayed dilutions were dried, conidia of Blumeria graminis f sp. hordei were inoculated to the plants by shaking off.
# Puccinia recondita = experiment: Test Example E: Brown rust on wheat
# Source text: [Test Example E] Brown Rust on Wheat
# Plasmopara viticola = experiment: Test Example G: Downy mildew on vine; details: for Test G (control value class): 250 ppm spray
# Source text: [Test Example G] Downy Mildew on Vine
# Seeds of a test plant (grape variety: Neomuscat) were planted followed by cultivating until three to four first leaves appeared. […] After the sprayed dilutions were dried, a zoosporangia suspension (1-2×10^4 zoosporangia/ml) of Plasmopara viticola was inoculated to the plants by spraying.
# [2] = gray mold on tomato, Botrytis cinerea, 250 ppm spray
# [3] = powdery mildew on barley, 250 ppm spray
# [4] = brown rust on wheat, Puccinia recondita, 250 ppm spray
# [5] = downy mildew on vine, Plasmopara viticola, 7-10 days after inoculation
# [6] = Gray mold on tomato, control value=100{1-(n/3)}
# [7] = Powdery mildew on barley, control value=100{1-(n/3)}
# [8] = Brown rust on wheat, control value=100{1-(n/3)}
# [9] = Downy mildew on vine, 2.5 ml/pot, evaluated 7-10 days after inoculation
# [10] = 250 ppm spray, preventive, control value class
SMILES,Test B control value (Botrytis cinerea; Gray mold on tomato),Test C control value (Alternaia brassicicola),Test D control value ([1]; Powdery mildew on barley),Test E control value (Puccinia recondita; Brown rust on wheat),further results
CCn1c(-c2c(F)cc(OC)cc2F)c(-c2ccccc2Cl)cc(Cl)c1=O [Compound 434],–,–,–,–,"Test B (control value class) (Botrytis cinerea; [2]): H (H shows more than 50% of control values); Test C (control value class) (Alternaia brassicicola; 250 ppm spray): H (H shows more than 50% of control values); Test D (control value class) [1, 3]: H (H shows more than 50% of control values); Test E (control value class) (Puccinia recondita; [4]): H (H shows more than 50% of control values); Test G (control value class) (Plasmopara viticola; [5]): H (H shows more than 50% of control values)"
COc1cc(F)c(-c2c(-c3cc(F)ccc3Cl)cc(C)c(=O)n2C)c(F)c1 [Compound 759],–,–,–,–,"Test B (control value class) (Botrytis cinerea; [6]): H (H shows more than 50% of control values); Test C (control value class) (Alternaia brassicicola; control value=100{1-(n/3)}): H (H shows more than 50% of control values); Test D (control value class) [1, 7]: H (H shows more than 50% of control values); Test E (control value class) (Puccinia recondita; [8]): H (H shows more than 50% of control values); Test G (control value class) (Plasmopara viticola; [9]): L (L shows 50% or less of control values)"
Cn1c(-c2c(F)cccc2F)c(-c2cc(F)ccc2Cl)cc(Br)c1=O [Compound 363],–,–,–,–,"Test B control value (gray mold on tomato) (Botrytis cinerea; [10]): H (H shows more than 50% of control values); Test C control value (Alternaria sooty spot on cabbage) (Alternaia brassicicola; [10]): H (H shows more than 50% of control values); Test D control value (powdery mildew on barley) [1, 10]: H (H shows more than 50% of control values); Test E control value (brown rust on wheat) (Puccinia recondita; [10]): H (H shows more than 50% of control values); Test G control value (downy mildew on vine) (Plasmopara viticola; 250 ppm spray (2.5 ml/pot), preventive, 7-10 days after inoculation, control value class): H (H shows more than 50% of control values)"
COc1cc(F)c(-c2c(-c3ccc(F)cc3Cl)cc(C)c(=O)n2C)c(F)c1 [Compound 621],–,–,–,–,"Test B (control value class, gray mold on tomato) (Botrytis cinerea; in vivo): H (H shows more than 50% of control values); Test C (control value class, Alternaria sooty spot on cabbage) (Alternaia brassicicola; in vivo): H (H shows more than 50% of control values); Test D (control value class, powdery mildew on barley) ([1]; in vivo): H (H shows more than 50% of control values); Test E (control value class, brown rust on wheat) (Puccinia recondita; in vivo): H (H shows more than 50% of control values); Test G (control value class, downy mildew on vine) (Plasmopara viticola; 250 ppm, sprayed 2.5 ml/pot before inoculation, evaluated 7-10 days after inoculation): L (L shows 50% or less of control values)"
CCn1c(-c2c(F)cc(F)cc2F)c(-c2cc(F)cc(F)c2)cc(Br)c1=O [Compound 797],–,–,–,–,"Test B (control value class) (Botrytis cinerea; [6]): H (H shows more than 50% of control values); Test C (control value class) (Alternaia brassicicola; control value=100{1-(n/3)}): H (H shows more than 50% of control values); Test D (control value class) [1, 7]: H (H shows more than 50% of control values); Test E (control value class) (Puccinia recondita; [8]): H (H shows more than 50% of control values); Test G (control value class) (Plasmopara viticola; [9]): L (L shows 50% or less of control values)"
Cc1cc(-c2cccc(F)c2Cl)c(-c2c(F)cc(F)cc2F)n(C)c1=O [Compound 505],–,–,–,–,"Test B (control value class) (Botrytis cinerea; [2]): H (H shows more than 50% of control values); Test C (control value class) (Alternaia brassicicola; 250 ppm spray): H (H shows more than 50% of control values); Test D (control value class) [1, 3]: H (H shows more than 50% of control values); Test E (control value class) (Puccinia recondita; [4]): H (H shows more than 50% of control values); Test G (control value class) (Plasmopara viticola; [5]): H (H shows more than 50% of control values)"
Cn1c(-c2c(F)cc(F)cc2F)c(-c2cc(F)cc(F)c2Br)cc(Br)c1=O [Compound 817],–,–,–,–,Test G (control value class) (Plasmopara viticola; [9]): L (L shows 50% or less of control values)
CCn1c(-c2c(F)cc(OC)cc2F)c(-c2cc(F)cc(F)c2Br)cc(Cl)c1=O [Compound 819],–,–,–,–,Test G (control value class) (Plasmopara viticola; [9]): H (H shows more than 50% of control values)
CCn1c(-c2c(F)cc(OC)cc2F)c(-c2cc(OC)cc(OC)c2)ccc1=O [Compound 71],H (H shows more than 50% of control values),H (H shows more than 50% of control values),H (H shows more than 50% of control values),H (H shows more than 50% of control values),–
COc1cc(OC)c(Br)c(-c2ccc(=O)n(C)c2-c2c(F)cc(F)cc2F)c1 [Compound 135],H (H shows more than 50% of control values),H (H shows more than 50% of control values),H (H shows more than 50% of control values),H (H shows more than 50% of control values),–
CCn1c(-c2c(F)cc(OC)cc2F)c(-c2cc(OC)ccc2Cl)ccc1=O [Compound 770],–,–,–,–,Test G (control value class) (Plasmopara viticola; [9]): L (L shows 50% or less of control values)
Cn1c(-c2c(F)cccc2F)c(-c2ccccc2Br)ccc1=O [Compound 94],H (H shows more than 50% of control values),H (H shows more than 50% of control values),H (H shows more than 50% of control values),H (H shows more than 50% of control values),–
CCn1c(-c2c(F)cccc2F)c(-c2cc(OC)c(Br)c(OC)c2)ccc1=O [Compound 39],H (H shows more than 50% of control values),H (H shows more than 50% of control values),H (H shows more than 50% of control values),H (H shows more than 50% of control values),–
O=c1c(Cl)cc(-c2ccc(Cl)cc2F)c(-c2c(F)cccc2F)n1CC(F)F [Compound 429],–,–,–,–,"Test B (control value class) (Botrytis cinerea; [2]): L (L shows 50% or less of control values); Test C (control value class) (Alternaia brassicicola; 250 ppm spray): H (H shows more than 50% of control values); Test D (control value class) [1, 3]: H (H shows more than 50% of control values); Test E (control value class) (Puccinia recondita; [4]): H (H shows more than 50% of control values)"
CCn1c(-c2c(F)cccc2F)c(-c2ccccc2I)cc(Br)c1=O [Compound 113],H (H shows more than 50% of control values),H (H shows more than 50% of control values),H (H shows more than 50% of control values),H (H shows more than 50% of control values),–
Cn1c(-c2c(F)cccc2F)c(-c2ccccc2Cl)ccc1=O [Compound 77],H (H shows more than 50% of control values),H (H shows more than 50% of control values),H (H shows more than 50% of control values),H (H shows more than 50% of control values),–
COc1cnc(-c2c(-c3ccccc3)ccc(=O)n2C)c(Cl)c1 [Compound 9],H (H shows more than 50% of control values),H (H shows more than 50% of control values),H (H shows more than 50% of control values),H (H shows more than 50% of control values),–
COc1ccc(F)c(-c2cc(Cl)c(=O)n(C)c2-c2c(F)cccc2F)c1F [Compound 110],H (H shows more than 50% of control values),H (H shows more than 50% of control values),H (H shows more than 50% of control values),H (H shows more than 50% of control values),–
COc1ccc(Cl)c(C2=C(c3c(F)cccc3F)N(C)C(=O)CC2)c1 [Compound 56],H (H shows more than 50% of control values),H (H shows more than 50% of control values),H (H shows more than 50% of control values),H (H shows more than 50% of control values),–
CCn1c(-c2c(F)cccc2F)c(-c2cc(OC(C)=O)ccc2Cl)ccc1=O [Compound 107],H (H shows more than 50% of control values),H (H shows more than 50% of control values),H (H shows more than 50% of control values),H (H shows more than 50% of control values),–
COc1cc(F)c(-c2c(-c3cc(OC)cc(OC)c3Cl)ccc(=O)n2C)c(F)c1 [Compound 82],H (H shows more than 50% of control values),H (H shows more than 50% of control values),H (H shows more than 50% of control values),H (H shows more than 50% of control values),–
